# Experimental data published in the supplement of paper PMC3334620.
# The full ranking holds about 33,000 sequences; the median of “E-score (-0.5 to 0.5)” is about -0.017, and the highest 2% start at about 0.3. This is one part of the list.
# Molecular target: T1, Sut1 (UniProt P53032)
# T1 sequence: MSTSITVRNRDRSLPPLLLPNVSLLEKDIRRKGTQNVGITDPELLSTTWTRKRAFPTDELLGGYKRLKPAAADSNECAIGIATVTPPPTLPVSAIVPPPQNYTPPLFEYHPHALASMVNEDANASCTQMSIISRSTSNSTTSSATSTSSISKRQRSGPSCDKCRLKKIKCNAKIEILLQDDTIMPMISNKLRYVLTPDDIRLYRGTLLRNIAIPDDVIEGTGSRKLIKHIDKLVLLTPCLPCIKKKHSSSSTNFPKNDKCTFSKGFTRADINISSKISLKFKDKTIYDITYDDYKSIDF
# Assay: PBM E-score (8-mer binding enrichment) (E-score (-0.5 to 0.5)); higher = stronger / more preferred TF binding; most listed sequences are background and not binding sites
# Settings: protein concentration: 200 nM; construct: GST-full length
# Method in brief: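 GST-tagged yeast TFs (full-length or DNA-binding domain) were made by PURExpress in vitro transcription/translation and applied at about 100-200 nM to universal all-10-mer Agilent arrays. The arrays were made double-stranded by primer extension, on fresh or once-stripped slides. Bound protein was detected with fluorescent anti-GST, and scans were normalised with masliner. Each ungapped eight-base word, pooled with its reverse complement, received an E-score (modified Wilcoxon-Mann-Whitney statistic) from the Universal PBM Analysis Suite.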
row,Sequence,PBM E-score
1,ATTTCTCG,0.268
2,GGGGATTA,0.0121
3,TGCAAAAA,0.175
4,ATCGTGGC,-0.0298
5,AATAGCAT,0.136
6,AGCTCTGA,-0.104
7,AGACGACC,-0.056
8,AATTCTCA,0.131
9,AGCGACCT,-0.0631
10,GCTAGTCC,0.145
11,AAAGAAAG,0.249
12,GAAACAAA,0.321
13,CTAGCTAG,0.132
14,CGATGCGA,-0.0438
15,AGGTGGAG,0.0604
16,AACCGCGC,0.11
17,GAAGTTCA,0.0798
18,AACCAGGT,-0.308
19,ACTTTCGC,0.019
20,AGGGCCGC,-0.158
21,ACGCATCC,-0.199
22,CAGCGTGG,-0.176

row,Sequence,PBM E-score
1,CCTTTTGA,0.0755
2,ACATAACC,0.121
3,ATTTGGTC,0.0537
4,AACCAACT,0.116
5,GTAGAGAC,-0.0714
6,GCTGTTAC,-0.193
7,CACTACCA,0.0415
8,AAGTGTGC,-0.0417
9,GGTCTAAC,-0.0757
10,CATGGAGG,-0.335
11,GCCTGGTA,-0.156
12,ACCACACG,-0.144
13,CTAGCGCC,-0.167
14,AACCCCTT,-0.0441
15,CGGCTATA,0.0266
16,AGTGCGCC,-0.179
17,TCGATTAA,0.206
18,CTTACCTA,0.0125
19,GACTCGAC,-0.0914
20,CAAGCACC,-0.206
21,CTCCAAAA,-0.0606
22,AGTTTCTA,0.0689

row,Sequence,PBM E-score
1,GCCGAGAA,0.143
2,CTTTCAGC,0.0684
3,CCTCGTTA,-0.0601
4,CGCACTTC,-0.0386
5,AAATTACA,0.297
6,CTTATATA,0.334
7,GTCAAATA,0.143
8,GCGGCTTA,-0.0978
9,CAACTAGA,0.0952
10,AAGATATC,0.0379
11,GAGTAGGA,0.207
12,CTATTTGC,0.0258
13,CAACGTCC,-0.158
14,AAGATTTG,-0.0896
15,GATGATGA,0.0751
16,GTAGCCAC,-0.0913
17,ATTACTCC,0.318
18,AAGATTGT,0.123
19,AACTGCGC,-0.165
20,AGGGGAAA,-0.0626
21,AATTGGCG,0.0284
22,CCGTGACG,-0.0388

row,Sequence,PBM E-score
1,CTATGTTA,0.173
2,CTTCAGAC,-0.00463
3,CATGTACA,-0.0514
4,CCGTTTAC,-0.0358
5,GATTAGAA,0.0478
6,ATGACCTC,-0.244
7,AATGGTCT,0.113
8,AGCATGAA,0.0511
9,CTCGCATC,-0.077
10,GGGCAAGA,0.0388
11,ACTCAGCG,-0.159
12,GCGTACAA,-0.0821
13,CACGGCTC,-0.0352
14,ACTATGCG,0.0167
15,CGACTAAC,0.102
16,GAACCCCA,-0.107
17,ACTTGAAA,0.126
18,CCCATTCA,-0.0208
19,ATACAACC,-0.0784
20,ACCGATGA,0.0542
